# Laboratory results reported in the supplement of paper PMC12645437, “Orthogonal IMiD-Degron Pairs Induce Selective Protein Degradation in Cells” (ACS Chemical Biology, 2025).
# This is one part of the list.
# Target: no compound (DMSO)
# Experiment: log2 fold change of degron read counts, EGFP-low vs EGFP+ sorted cells; higher = lower degron-EGFP level without compound (poor expression or instability)
# Settings: compound: DMSO control; 18 h
# 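Note: jurkat cells carrying a lentiviral library of mutant zinc finger degrons fused to EGFP plus mCherry, mCherry+ cells FACS sorted, degron abundance counted by next-generation sequencing.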
row,Sequence,log2 fold change of degron read counts
1,FICEQCGALFTQKGNLLRHIKL,-0.931
2,FDCEVCGAIFTQKGNLLRHIKL,-0.719
3,FWCPICGHCFTQKGNLLRHIKL,1.83
4,FWCNQCGAFFTQKGNLLRHIKL,1.67
5,FACPICGACFTQKGNLLRHIKL,-0.0962
6,FLCPQCGAPFTQKGNLLRHIKL,-0.475
7,LDCPICGFSCTQKGNLLRHIKL,0.0451
8,FDCPICGRPFTQKGNLLRHIKL,-0.619
9,FLCDVCGAAFTQKGNLLRHIKL,-0.302
10,FWCPICGALFTQKGNLLRHIKL,1.13
11,FKCEQCGANFTQKGNLLRHIKL,-0.657
12,FWCPICGRFFTQKGNLLRHIKL,0.773
13,FFCDVCGAVFTQKGNLLRHIKL,0.407
14,LTCEICGFQCTQKGNLLRHIKL,-0.846
15,FECSVCGHDFTQKGNLLRHIKL,-0.974
16,LRCPICGFICTQKGNLLRHIKL,0.869
17,FHCPICGRPFTQKGNLLRHIKL,-0.313
18,FCCNQCGAQFTQKGNLLRHIKL,-1.59
19,FKCNQCGRFFTQKGNLLRHIKL,-0.109
20,FNCEVCGACFTQKGNLLRHIKL,-2.42
21,LNCEICGFQCTQKGNLLRHIKL,-0.703
22,FICDICGAVFTQKGNLLRHIKL,-0.774
23,FSCNQCGACFTQKGNLLRHIKL,-0.247
24,FSCNICGARFTQKGNLLRHIKL,0.025
25,FICDVCGAHFTQKGNLLRHIKL,-2.26

row,Sequence,log2 fold change of degron read counts
1,FMCPVCGAVFTQKGNLLRHIKL,0.126
2,FYCDVCGANFTQKGNLLRHIKL,-1.15
3,FQCPICGALFTQKGNLLRHIKL,0.53
4,FLCEVCGAGFTQKGNLLRHIKL,-1.12
5,FFCEICGAKFTQKGNLLRHIKL,-0.797
6,LDCEICGFKCTQKGNLLRHIKL,0.00932
7,FLCNVCGAQFTQKGNLLRHIKL,-0.732
8,FQCPVCGANFTQKGNLLRHIKL,-0.504
9,LSCPICGFRCTQKGNLLRHIKL,0.858
10,FICNQCGHKFTQKGNLLRHIKL,-0.698
11,FVCNQCGHLFTQKGNLLRHIKL,-0.213
12,LTCEICGFHCTQKGNLLRHIKL,-0.56
13,FHCNQCGRCFTQKGNLLRHIKL,0.0934
14,FICNQCGHLFTQKGNLLRHIKL,0.0385
15,FTCNQCGHFFTQKGNLLRHIKL,0.727
16,FSCEQCGAFFTQKGNLLRHIKL,-1.33
17,FLCNQCGRSFTQKGNLLRHIKL,-0.404
18,LCCPICGFGCTQKGNLLRHIKL,1.14
19,LWCEICGFQCTQKGNLLRHIKL,0.802
20,FNCPICGRCFTQKGNLLRHIKL,-0.831
21,FGCSVCGHVFTQKGNLLRHIKL,0.94
22,FMCPQCGAFFTQKGNLLRHIKL,0.775
23,FWCDICGAAFTQKGNLLRHIKL,-1.47
24,FNCNICGACFTQKGNLLRHIKL,-0.861
25,FNCNQCGHMFTQKGNLLRHIKL,0.751
